Experimental data from PubChem BioAssay AID463173 (ICCB-Longwood Screening Facility, Harvard Medical School, 2010).
The whole screen tested about 52,000 compounds, of which about 1,700 (3.3%) were called active. Cut-off read from the data, not from the text of the source: active = survival mostly below about 52% (no sharp cut-off); inactive = mostly above about 56%. Some of the results follow.

What follows are molecules tested on Wild type (assay: S. aureus survival, RN4220 and DeltatarO strains – OD600, teichoic acid synthesis inhibitors, primary screen (AID 463173)). Conditions: S. aureus RN4220 wild type/DeltatarO growth, OD600, 18 h, stronger effect = lower value, screened at 18.75 µg/mL (by protocol).

SMILES	survival
N#Cc1c(N2C(=O)C3C4C=CC(C4)C3C2=O)sc2c1CCCC2 (stereo not drawn)	inactive: 108%
CCOC(=O)c1c(NC(=O)c2cc3ccccc3c(=O)o2)sc2c1CCC(C)C2 (stereo not drawn)	inactive: 132%
COc1cc(OC)cc(C(=O)Nc2cc3c(cc2N2CCCC2)n(C)c(=O)c(=O)n3C)c1	inactive: 131%
CCc1c(C)[nH][n+]2cnn(Cc3ccc(Cl)cc3)c2c1=O	inactive: 86%
Cc1ccc(SCC(=O)Nc2ccc3oc(-c4ccccc4C)nc3c2)cc1	inactive: 86%
COc1ccc(-n2c(=O)c3ccccc3n(CC(=O)Nc3ccccc3OC)c2=O)cc1	inactive: 89%
COc1cc(C2CC(=O)Nc3c2c(C)nn3-c2nncc(-c3ccc(C)cc3)n2)cc(OC)c1OC (stereo not drawn)	inactive: 96%
Cc1ccc2c(CC(=O)Nc3c(C(=O)c4ccc(C)c(F)c4)oc4ccccc34)coc2c1	inactive: 109%
CCOc1ccc(NC(=O)c2cnc3ccccn3c2=O)cc1	inactive: 91%
Cc1ccc(CNC(=O)c2cc(C)nc3c2c(C)nn3-c2ccc(C)cc2)cc1	inactive: 47%
CCCCOc1ccc(C2(C)CC(=O)NC2=O)cc1 (stereo not drawn)	inactive: 107%
CC(=O)c1ccc(NC(=O)c2cnn(-c3cccc(F)c3)c2-n2cccc2)cc1	inactive: 75%
O=C(CN1CCC(n2nnc3ccccc32)CC1)Nc1ccccc1Cl	inactive: 96%
COc1ccc(S(=O)(=O)c2c(O)c3ccc(C(=O)NCc4ccc(F)cc4)cc3[nH]c2=O)cc1	inactive: 120%
COc1ccc(NC(=O)CSc2nc(-c3ccc(F)cc3)[nH]c2-c2ccc(C)cc2)cc1OC	inactive: 69%
CCOC(=O)c1[nH]c(C)c(/C=N/O)c1C	inactive: 95%
CC(C)CCNC(=O)C1CCN(Cc2ccccc2Cl)CC1	inactive: 105%
Cc1ccc2nc(SCC(=O)N(C)C3CCCCC3)c(C#N)cc2c1	inactive: 109%
O=C(Nc1ccc(Oc2ccccc2)cc1)C1CCN(S(=O)(=O)c2ccc(Cl)cc2)CC1	inactive: 74%
CCOc1ccc(CCNC(=O)c2ccc3c(c2)c(C)c(C)n3Cc2ccccc2)cc1OCC	inactive: 68%

SMILES	survival
CC(C)Nc1nc(C#N)nc(NC(C)C)n1	inactive: 130%
O=S(=O)(c1ccc(Cl)cc1)c1nc(-c2ccco2)oc1SCc1ccc(F)cc1	inactive: 73%
COc1ccc(CCN2C(=O)c3[nH]nc(-c4ccccc4O)c3C2c2ccc(OC)cc2)cc1 (stereo not drawn)	inactive: 58%
COc1ccccc1NC(=O)CCCc1nnc2n(C)c(=O)c3sccc3n12	inactive: 97%
CCOC(=O)c1cc(S(=O)(=O)NCc2ccc(C)cc2)[nH]n1	inactive: 134%
Cc1ccc2nc3sc(C(=O)NCCCN(C)c4ccccc4)cc3cc2c1	inactive: 82%
COc1ccc(NC(=O)CN(c2cc(C)cc(C)c2)S(=O)(=O)c2c(C)noc2C)cc1Cl	inactive: 89%
Fc1cccc(-n2ncc3c2ncn2nc(Cc4ccccc4)nc32)c1	inactive: 95%
COc1ccccc1CNC(=O)CCC1N=C2c3ccccc3N=C(SCc3ccc(C)cc3C)N2C1=O (stereo not drawn)	inactive: 76%
COC(CNS(=O)(=O)c1ccc(S(=O)(=O)NC2CC2)cc1)OC	inactive: 107%
COc1ccc(NC(=O)CSc2ccc3nc(-c4ccccc4)cn3n2)cc1OC	inactive: 126%
CC(C)NC(=O)c1nn(-c2ccccc2F)nc1CO	inactive: 90%
O=C(Nc1cccnc1)Nc1c[nH]c2c(Cl)cccc2c1=O	inactive: 98%
Cc1ccccc1Nc1c(-c2ccc(N3CCOCC3)cc2)nc2ccccn12	inactive: 58%
COc1ccc(-c2nc(SCC(=O)Nc3ccc4c(c3)OCCO4)c(-c3ccc(C)cc3)[nH]2)cc1OC	inactive: 74%
CC(C)(C)OC(=O)N1CCC(c2nnc(SCc3cccc(Cl)c3)o2)CC1	active: 0%
Cc1ccc(CNC(=O)CN2C(=O)COc3ccc(S(=O)(=O)Nc4ccccc4)cc32)cc1	active: -6%
O=C(CSc1nnc(-c2ccc(S(=O)(=O)N3CCCC3)cc2)n1CC1CCCO1)NC1CC1 (stereo not drawn)	inactive: 108%
CC(C)(C)OC(=O)N/N=C/c1cccc(O)c1	inactive: 104%
Cc1ccc(C)c(NC(=S)N2CCC(c3nc4ccccc4o3)CC2)c1	inactive: 108%

SMILES	survival
Cc1cc(C)cc(NC(=O)CSc2nc(-c3ccccc3)c3cc(F)ccc3n2)c1	inactive: 86%
Cc1ccc2c(c1)-c1ncc(C(=O)c3ccccc3O)cc1CO2	active: -7%
CCc1ccc(NC(=O)CC2C(=O)N(c3cccc(OC)c3)C(=O)N2C2CCCC2)cc1 (stereo not drawn)	inactive: 120%
Cc1ccc(C(=O)NC2=NC(c3ccc(C)cc3)CC(=O)N2)cc1 (stereo not drawn)	inactive: 129%
Cc1cc(C)cc(NC(=O)c2cc(CN3CCCC3)on2)c1	inactive: 75%
CCn1c(SCCC#N)nnc1-c1ccncc1	inactive: 99%
CC(=O)c1ccc(NC(=O)c2cc3sccc3n2Cc2ccc(F)cc2)cc1	inactive: 83%
CCCCCOC(=O)CSc1ncnc2sc3c(c12)CCC(C)C3 (stereo not drawn)	active: -1%
Cc1ccccc1S(=O)(=O)Cc1ccc(C(=O)NC2CCC(C)CC2)o1 (stereo not drawn)	inactive: 78%
CCOc1ccc(NC(=O)Cn2c(=O)n(-c3ccccc3)c(=O)c3ccc(C(=O)NCc4ccc5c(c4)OCO5)cc32)cc1	inactive: 119%
COc1ccc(CNC(=O)c2cc3sccc3n2CC(=O)c2ccccc2)cc1	inactive: 110%
CCc1nc2cccnc2n1CCNC(=O)NC1CCCCC1	inactive: 108%
CCC(C)NC(=O)CSc1nc2cc3c(cc2c(=O)n1CCCCCC(=O)NCc1ccc2c(c1)OCO2)OCO3 (stereo not drawn)	inactive: 56%
Cc1ccc(CNC(=O)C2CCN(S(=O)(=O)c3ccc4[nH]c(=O)ccc4c3)CC2)cc1	inactive: 95%
Cc1nc2nc[nH]n2c(=O)c1CCC(=O)Nc1ccc(F)cc1	inactive: 91%
Cc1cc(-c2ccc(C)c(S(=O)(=O)NC3CCCCC3)c2)on1	inactive: 68%
CCOc1ccc(-n2ccnc2SCC(=O)Nc2nc3ccc(C)cc3s2)cc1	inactive: 80%
O=C(Cn1c(=O)n(Cc2cccs2)c(=O)c2cccnc21)Nc1ccc(F)cc1	inactive: 88%
